# Hit rate of the full screen: of about 50,000 compounds, about 800 (1.6%) showed an effect of 50% or more. The list shows a part of the results.
# Molecular target: Bcl-2-like protein 10 (Homo sapiens) (UniProt Q9HD36)
# Assay: Phenotype converters, Bcl-B/TR3 peptide binding displacement, primary biochemical FP (AID 1240);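 note: 0% = Bcl-B with tracer peptide and DMSO and 100% = tracer peptide lacking Bcl-B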
# Details: GST-Bcl-B / FITC-TR3 peptide fluorescence polarization; stronger effect = higher value; compound at 3.75 mg/L
# Sequence of UniProt Q9HD36 (Q9HD36 whole entry, looked up): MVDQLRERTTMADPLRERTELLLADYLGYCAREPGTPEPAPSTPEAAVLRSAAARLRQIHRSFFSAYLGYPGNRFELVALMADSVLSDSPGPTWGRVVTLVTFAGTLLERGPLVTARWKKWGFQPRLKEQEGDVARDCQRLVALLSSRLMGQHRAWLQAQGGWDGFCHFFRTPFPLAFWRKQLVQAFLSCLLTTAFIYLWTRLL
row,Structure (SMILES),displacement [%]
1,COc1cc(/C=N/Nc2nncc(=O)[nH]2)ccc1O,-2.8
2,CCCOc1ccc(Cc2c(O)nc(N)[nH]c2=O)cc1C,5.2
3,O=c1[nH]c2ccc(Br)cc2c(-c2ccc(Cl)cc2)c1N1CCOCC1,12
4,O=[N+]([O-])c1ccc(N2N=C(c3ccccc3)CC2c2ccccc2O)cc1 (stereo not given),-4.9
5,Nc1ccc(Oc2ccc(N)c(N)c2)cc1,2.7
6,COc1ccc(OC)c(NC(=O)/C=C/c2ccc(Cl)cc2Cl)c1,7.3
7,COc1ccc2oc(=O)c(-c3ccc(I)cc3)cc2c1,1.2
8,CCOc1ccc(C(=O)Nc2ccc(Cc3ccncc3)cc2)cc1Cl,-11.5
9,CCOc1ccc(C(=O)Nc2ccc3oc(-c4ccccc4Cl)nc3c2)cc1,13.2
10,O=C(CC(c1ccccc1)c1ccccc1)N1CCN(Cc2ccccc2)CC1,18
11,CC(=O)c1cccc(Nc2ncnc3ccc(C)cc23)c1,10.3
12,Cc1ccc(NC(=O)C(C)Sc2ccc(Cl)cc2)cc1 (stereo not given),3
13,O=[N+]([O-])c1cc(-c2nnc(-c3ccco3)o2)ccc1Cl,2.1
14,COc1ccc(S(=O)(=O)NCCc2ccccc2)cc1,0.6
15,Cc1cc(C)c(NS(=O)(=O)c2cccc([N+](=O)[O-])c2)c(C)c1,-9.2
16,C(=C(\c1ccccc1)c1nc2ccccc2[nH]1)/c1ccccc1,3
17,O=C(Cc1ccc([N+](=O)[O-])cc1)N/N=C/c1c2ccccc2cc2ccccc12,2.7
18,CCC(Oc1ccccc1)C(=O)Nc1cc(Cl)ccc1OC (stereo not given),-11.1
19,Cc1nnc(N/N=C/c2ccccc2OCc2ccccc2)[nH]c1=O,-10
20,O=C(c1ccc([N+](=O)[O-])cc1)N1CCSC1c1ccc2c3c(cccc13)CC2 (stereo not given),12
21,CC1(C)CC(=O)C2=C(C1)OC(c1ccccc1)=CC2c1ccccc1 (stereo not given),6.3
22,O=C(O)CN=C(NS(=O)(=O)c1ccc(Cl)cc1)c1ccccc1,1.1

row,Structure (SMILES),displacement [%]
1,O=[N+]([O-])c1cccc(C2CC(c3ccccc3)=NN2c2ccccc2)c1 (stereo not given),-0.2
2,CCOc1ccc(N(Cc2ccc(C(=O)N3CCCC3)cc2)S(=O)(=O)c2ccc(C)cc2)cc1,-11.6
3,O=C(COc1ccc2ccccc2c1)Nc1ccccc1C(=O)Nc1ccccc1,1.7
4,CCc1ccccc1NC(=O)CN(c1ccccc1)S(=O)(=O)c1ccccc1[N+](=O)[O-],-5
5,COc1cc(OC)c(NS(=O)(=O)c2ccc(F)cc2)cc1Cl,-5.7
6,COc1cccc(-c2nc(-c3cccnc3)no2)c1,1
7,Cc1nn(-c2ccccc2)c(N2CCCCC2)c1/C=N/O,5.7
8,CCn1c(SC)nc2sc3c(c2c1=O)CCCC3,-7.5
9,CC(C)N(C(=O)C1CCCCC1C(=O)O)C(C)C (stereo not given),-3.7
10,Cc1onc(-c2ccccc2)c1C(=O)Nc1ccc(Cl)cc1Cl,2.8
11,Cc1ccc(N(CC(=O)Nc2cccc3ccccc23)S(=O)(=O)c2ccccc2)cc1,8.7
12,O=C(/C=C/Nc1cc(Cl)cc(Cl)c1)c1ccccc1,-3.9
13,O=c1[nH]cnc(O)c1C(c1ccc2c(c1)OCO2)c1c(O)nc[nH]c1=O,4.9
14,Cc1ccc2c(c1)c1c(n2C)C(NC(N)=O)CCC1 (stereo not given),1.1
15,O=C(Nc1cccc(F)c1)c1cc2ccccc2oc1=O,3
16,CCOc1ccc(NC(=O)CN(c2ccc(C)cc2)S(=O)(=O)c2ccc(OCC)cc2)cc1,15
17,COC(=O)CN(c1cc(C)ccc1OC)S(C)(=O)=O,4.4
18,Cc1c(Cl)cccc1N1C(=O)C2C3c4ccccc4C(C)(c4ccccc43)C2C1=O (stereo not given),-1.8
19,O=C(CC1Nc2ccccc2NC1=O)Nc1ccc(F)cc1 (stereo not given),3.4
20,O=C(Nc1ccccc1I)c1ccccc1[N+](=O)[O-],11.4
21,O=C1c2ccccc2/C(=N/N=C/c2cccs2)C1C(=O)C(c1ccccc1)c1ccccc1 (stereo not given),6.9
22,O=C(NCc1ccco1)/C(=C/c1cccc([N+](=O)[O-])c1)NC(=O)c1cccs1,-7.2

row,Structure (SMILES),displacement [%]
1,Cc1cc(=O)c2cc(Br)ccc2[nH]1,8
2,O=[N+]([O-])c1ccccc1C=NN1CCN(Cc2ccccc2)CC1,-5.2
3,O=C(NC(c1ccccc1)c1ccccc1)c1ccccn1,-6.5
4,CCCCn1nc(CC(=O)NCCN(CC)CC)c2ccccc2c1=O,4.4
5,CCn1c2ccccc2c2cc(/C=N/n3c(C)nnc3C)ccc21,10
6,COc1ccc(/C(N)=N/OC(=O)c2ccc(C)cc2)cc1,-20.8
7,CCc1ccccc1N(CC(=O)Nc1cccc(Br)c1)S(C)(=O)=O,-1.3
8,Cc1ccc(-n2c(-c3ccccc3)nc3c(cnn3-c3ccccc3)c2=O)cc1,-4.5
9,O=C(NN1C(=O)/C(=C/c2cc3c(cc2[N+](=O)[O-])OCO3)SC1=S)c1ccccc1Cl,5.9
10,Clc1ccc(CN2CCN(/N=C\c3ccc(OCc4ccccc4)cc3)CC2)cc1,-9.5
11,CCOc1ccccc1C1Nc2ccccc2NC2=C1C(=O)CC(c1ccc(OC)cc1)C2 (stereo not given),-1.7
12,COC(=O)C1=C(C)NC2=C(C(=O)c3ccccc32)C1c1ccc(-c2ccccc2[N+](=O)[O-])o1 (stereo not given),10.5
13,OC(CNCC1(c2ccc3c(c2)OCCO3)CCCC1)COc1ccccc1 (stereo not given),-7.8
14,CCOc1ccc(S(=O)(=O)N(CC(=O)Nc2ccc(C(C)=O)cc2)c2ccc(C)cc2)cc1,-0.2
15,Cc1ccc(/C=N/N=C2/NC(=O)C(CC(=O)Nc3ccccc3C(F)(F)F)S2)o1 (stereo not given),7.4
16,CC(=O)CC(=O)NCc1ccccc1Cl,-5.7
17,COc1ccc(NC(=O)c2cccc([N+](=O)[O-])c2C)c(OC)c1,-3.8
18,Cc1ccc(NC(=O)C(Cl)Cl)c(Br)c1,3.1
19,O=C1c2cccc3c(N4CCCCC4)ccc(c23)C(=O)N1CCO,66.1
20,Cc1cc(C)n(-c2nc(N(c3ccccc3)c3ccccc3)nc(-n3nc(C)cc3C)n2)n1,14.3
21,Cc1ccc(C)c(NS(=O)(=O)c2ccc3c(c2)C(=O)c2cc(S(=O)(=O)Nc4cc(C)ccc4C)ccc2-3)c1,2.4
22,C/C(=N\Nc1nnc(-c2ccccc2)c(-c2ccccc2)n1)c1cccc([N+](=O)[O-])c1,4.5

row,Structure (SMILES),displacement [%]
1,COc1ccc(/C=N/n2cnnc2)cc1CSc1ccccn1,15.4
2,CCOC(=O)NCS(=O)(=O)c1ccc(C)cc1,0.6
3,Cc1ccc(-c2nc3ccccc3[nH]2)s1,0.7
4,CC(=O)Nc1ccc(C(=O)NCc2ccccn2)cc1,14.1
5,O=C(O)c1ccccc1C(=O)N1CCN(C(=O)c2ccccc2C(=O)O)CC1,-0.8
6,COc1ccc(C2=NN(c3nc(-c4ccc(C)c(C)c4)cs3)C(c3ccc(OC)cc3)C2)cc1 (stereo not given),12.6
7,NC(N)=NS(=O)(=O)c1ccc(NC(=S)NC(=O)c2ccccc2)cc1,-1.1
8,CC(NC(=O)c1ccccc1)c1ccc(Cl)cc1 (stereo not given),14.5
9,Cc1ccc(C(NC(N)=O)c2cccc(C)c2)cc1 (stereo not given),-4.2
10,CCOc1cc(/C=C2/SC(=S)N(C)C2=O)cc(Br)c1OCc1ccccc1Cl,-6.4
11,O=C1Nc2ccccc2/C1=N\N1CCN(c2ccccc2)CC1,-9.1
12,Cc1ccccc1NC(=O)c1c(NC(=O)C(C)(C)C)sc2c1CCCC2,-7.3
13,O=C(NCc1ccccc1)NC(=O)c1ccncc1,1.5
14,COc1ccc(C2C3C(=O)N(c4ccccc4)C(=O)C3ON2c2ccccc2C)cc1 (stereo not given),9.2
15,COc1ccccc1NC1=NC2(CCCC2)N=C(N)N1,-6.4
16,CC(C)(CN)CNc1ccc([N+](=O)[O-])cc1Cl,6.6
17,C#CCn1cc(/C=C(/C#N)C(=O)Nc2ccc(OCC)cc2)c2ccccc21,5.9
18,COc1ccc([N+](=O)[O-])cc1-c1ccc(C(=O)O)o1,-12.5
19,COc1cc(/C=C2\C(=O)N(c3cccc(C(=O)O)c3)N=C2C)cc([N+](=O)[O-])c1O,19.4
20,CCc1cccc(NC(=O)C(C)Oc2ccc(Cl)cc2Cl)c1 (stereo not given),0.8
21,CCCOC(=O)c1ccc(NC(=O)c2cc(I)ccc2Cl)cc1,2.5
22,CC(C)(C)c1ccc(C(=O)Nc2ccc3[nH]c(=O)[nH]c3c2)cc1,7.2

row,Structure (SMILES),displacement [%]
1,O=C1S/C(=C/c2ccc(Cl)c([N+](=O)[O-])c2)C(=O)N1c1ccccc1,3.6
2,COC(=O)c1cc(C(=O)Nc2ccc(C)c(Cl)c2)cc([N+](=O)[O-])c1,5.2
3,COc1ccc([N+](=O)[O-])cc1NC(=O)C1CCCCC1C(=O)O (stereo not given),-9
4,CCOC(=O)C(CCCCOc1ccc(C)c(C)c1)C(=O)OCC,2.6
5,Cc1ccc(C)n1-c1ccc(C(=O)NN)c(Cl)c1,-18.2
6,C/C(CC(=O)Nc1cccc2ccccc12)=N\NC(=O)c1ccoc1C,-5.3
7,COc1ccc(N(CC(=O)Nc2cccc(SC)c2)S(=O)(=O)c2ccccc2)cc1,4.9
8,O=C(Cc1ccc(Cl)cc1)NNC(=O)c1ccccn1,-17.9
9,CC1(C)OC(=O)C2(C(=O)O1)C1C3C4CC5C6C4C1C6C2C53 (stereo not given),7.6
10,CC1c2ccccc2C2(CCCC2)CN1C(=O)Cc1ccccc1 (stereo not given),-9.7
11,O=C1C2C3C=CC(O3)C2C(=O)N1c1ccc([N+](=O)[O-])cc1 (stereo not given),1.6
12,COc1ccc2c(c1)c(=O)oc1cc(OC(C)=O)ccc12,-3.8
13,Cc1ccc(OCCOc2cccc(C=O)c2)cc1C,10.6
14,COc1ccc(OC)c(S(=O)(=O)n2nnc3ccccc32)c1,-4
15,O/N=C/c1cn(-c2ccccc2)nc1-c1ccc(F)cc1,5.2
16,COc1ccccc1N(CC(=O)NC(C)C)S(=O)(=O)c1ccccc1,3
17,COc1cc(/C=C2/SC(=S)N(c3ccccc3)C2=O)cc(OC)c1O,15
18,CCN(CC)C(=S)Sc1nc(Nc2cccc(C)c2)nc(Nc2cccc(C)c2)n1,6.1
19,O=c1[nH]cc(NN=c2c(=O)c3ccccc3c2=O)c(=O)[nH]1,1.4
20,CCOc1cc(C(=O)N(C)c2ccccc2)cc(OCC)c1OCC,11.4
21,CCN1C(=O)/C(=C/c2c(OC)ccc3ccccc23)C(=O)NC1=S,-4.6
22,O=C(/C=C/Nc1ccccc1NS(=O)(=O)c1ccc([N+](=O)[O-])cc1)c1ccc2c(c1)OCO2,12.6
